{
  "source": "PubChem BioAssay AID588855",
  "about": "(National Center for Advancing Translational Sciences (NCATS), 2011)",
  "note": "Hit rate of the full screen: of about 410,000 compounds, about 5,000 (1.2%) were called active. The shares of active, inactive and inconclusive entries below differ from those in the screen. The call rests on the fitted dose curve; in most records, active means well fitted inhibition curve with a large enough effect; inconclusive means small, poorly fitted or top-dose-only effect; inactive means no such curve, though single readings can be large or run the other way. A potency beside an inconclusive call is a rough fit, not a confirmed value. Potency means the concentration at half of the fitted maximal effect; tags describe the fitted curve by direction and shape.",
  "data": [
    {"assay": "qHTS for Inhibitors of TGF-b; further: nearly all actives have a fitted effect of over 65% in size", "conditions": "HepG2 CAGA-GFP TGF-b/SMAD3 reporter, GFP fluorescence, 18 h, TGF-beta stimulated, 500 pg/mL final; series mostly up to 46.1 µM", "how_it_was_run": "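Using HEPG2 CAGA-GFP reporter cells at 1000 cells/well, we pinned test compounds, stimulated with recombinant TGF-beta (500 pg/mL final) and measured total well GFP after 18 h.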", "values": [
      {"molecule": "C=CCNC(=S)N/N=C/c1cn(-c2ccccc2)nc1-c1ccc(OC)cc1", "Potency": "inactive"},
      {"molecule": "CC(C)c1ccc(NS(=O)(=O)c2ccc3[nH]cc(C(=O)NCC4CCCO4)c(=O)c3c2)cc1", "note": "(centres undefined)", "Potency": "inconclusive: 35.5 µM [inhibitor, single point]"},
      {"molecule": "CCC(=O)Nc1nc2ccccc2n1Cc1ccccc1Cl", "Potency": "inconclusive: 35.5 µM [inhibitor, single point]"},
      {"molecule": "CCOc1ccc2nc(N3CCCC(C(=O)Nc4ccc(OC)c(Cl)c4)C3)sc2c1", "note": "(centres undefined)", "Potency": "inconclusive: 8.91 µM [inhibitor, partial curve]"},
      {"molecule": "C[C@H]1C(c2ccc(F)cc2)=NN(c2ccccc2)[C@@H]1CO", "Potency": "inconclusive: 35.5 µM [inhibitor, partial curve, poor fit]"},
      {"molecule": "CCC(C)N(C(=O)CSc1nc(C)c(C)c(C)c1C#N)C1CCS(=O)(=O)C1", "note": "(centres undefined)", "Potency": "inconclusive: 11.2 µM [inhibitor, single point]"},
      {"molecule": "Fc1ccc(Nc2nc(SCc3ccccc3F)nc3ccccc23)cc1", "Potency": "inconclusive: 35.5 µM [inhibitor, single point]"},
      {"molecule": "Cc1cc(S(=O)(=O)N2CCCOC2CNC(=O)C(=O)NCc2cccs2)ccc1F", "note": "(centres undefined)", "Potency": "inconclusive: 3.16 µM [inhibitor, single point]"},
      {"molecule": "Cc1nc2ccc(NC(=O)Cc3ccsc3)cc2s1", "Potency": "inconclusive: 5.62 µM [inhibitor, single point]"},
      {"molecule": "CC(Sc1nc2ccc(C(=O)c3ccccc3)cc2[nH]1)C(=O)O", "note": "(centres undefined)", "Potency": "inactive"},
      {"molecule": "CCC1CCCCN1C(=O)CSc1nc(-c2ccc(OC)c(OC)c2)cc(C(F)(F)F)n1", "note": "(centres undefined)", "Potency": "inactive"},
      {"molecule": "O=c1[nH]c(CCl)nc2cc(-c3ccc(Cl)cc3)sc12", "Potency": "active: 5.01 µM"},
      {"molecule": "COc1ccc(C(=O)CN2C(=O)c3ccccc3S2(=O)=O)cc1", "Potency": "inactive"},
      {"molecule": "COc1ccc([C@H]2C[C@H](n3cc(C4CC4)nn3)[C@@H](O)CN2CC2CCCCC2)cc1", "Potency": "inconclusive: 35.5 µM [inhibitor, single point]"},
      {"molecule": "CC(C)(CO)NCc1c(OCc2ccc(Cl)cc2)ccc2ccccc12", "Potency": "inconclusive: 35.5 µM [inhibitor, single point]"},
      {"molecule": "Cc1cc(C(=O)NC2CCCc3c2cnn3-c2ccc(C)c(C)c2)n(C)n1", "note": "(centres undefined)", "Potency": "inactive"},
      {"molecule": "Cc1cccc(N2CCN(C(=O)c3[nH]c(C(F)(F)F)nc3-c3ccccc3)CC2)c1C", "Potency": "inconclusive: 2.51 µM [inhibitor, partial curve, poor fit]"},
      {"molecule": "CCc1ccccc1NC(=O)c1cc(C2CC2)on1", "Potency": "inactive"},
      {"molecule": "CC(C(=O)N1CCCC1)N(c1ccc(Cl)cc1)S(C)(=O)=O", "note": "(centres undefined)", "Potency": "inconclusive: 2.82 µM [inhibitor, single point]"}
    ]}
  ]
}
